Experimental data from PubChem BioAssay AID1347417 (National Center for Advancing Translational Sciences (NCATS), 2020).
Out of some 120,000 compounds screened, about 5,300 (4.4%) were called active. Inconclusive results, whose numbers are uncertain, are shown with a selection of clear calls. The call rests on the fitted dose curve; in most records, active means well fitted inhibition curve with a large enough effect; inconclusive means small, poorly fitted or top-dose-only effect; inactive means no such curve, though single readings can be large or run the other way. Where the call is inconclusive, the potency comes from a doubtful curve fit.

Experiment: qHTS Primary assay for Inhibitors of Plasmodium falciparum Dd2 growth in vitro; further: nearly all actives have a fitted effect of over 65% in size;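 on activity, negative = inhibition: plate controls were DMSO vehicle for no effect and reference drug for full effect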
Settings: P. falciparum Dd2 growth, SYBR Green, 72 h; activity, negative = inhibition: at 28.9 µM (top of the series) unless noted; series mostly up to 28.9 µM
In short: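 Infected erythrocytes (Dd2, 0.3% parasitemia, 2.5% hematocrit final) are added to compound in RPMI-1640/Albumax II medium, grown 72 h at 37C in low oxygen, then lysed with saponin/Triton-X containing SYBR Green and read by fluorescence.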
Potency means the concentration at half of the fitted maximal effect; tags describe the fitted curve by direction and shape.

Structure (SMILES) | Potency | activity, negative = inhibition
O=C(Cn1ccn2nc(-c3ccccc3)c(CO)c2c1=O)N1CCCCCC1 | inactive | –
COc1ccc(-c2cc(C[C@@H]3CC[C@H](O)[C@@H](CNC(=O)NCc4ccccc4)O3)no2)cc1 | inactive | –
O=C(CCc1ccccc1)Nc1ccc(-c2nnc3n2CCCC3)cc1 | inconclusive: 4.47 µM [inhibitor, partial curve, poor fit] | –
O=C(NCc1ccccc1)c1ccc2nccn2c1 | inactive | –
Cc1ccc(C(=O)NCCc2ncc(C)n2C2CCCC2)cn1 | inconclusive: 10 µM [inhibitor, single point] | –
Cc1cccc(CN2CCCC3(CCN(c4cc(C)c5ccccc5n4)C3)C2=O)c1 (configuration not stated) | inconclusive: 5.62 µM [inhibitor, partial curve] | –
Cc1ccsc1C(=O)NCCc1noc(-c2cccnc2)n1 | inactive | –
O=C1NC2(CN(Cc3cccc4ccccc34)C2)Oc2ccccc21 | inconclusive: 22.4 µM [inhibitor, single point] | –
Cc1ccccc1S(=O)(=O)N1CCn2c(n[nH]c2=O)C1 | inactive | –
CCOC(=O)CC(NC(=O)CCc1c(C)nc2ncnn2c1C)c1ccc(OC(C)C)cc1 (configuration not stated) | inactive | –
CCOc1ccc(C(=O)N2CCN(CCc3ccccn3)CC2)cc1 | active: 2.82 µM | –
Cn1c(=O)[nH]c(=O)c2c1nc1n2CCN1c1ccccc1 | inconclusive: 0.282 µM [inhibitor, full curve, poor fit] | –
CCOc1ccc(S(=O)(=O)c2cn(Cc3ccc(OC)cc3)c3ccc(F)cc3c2=O)cc1 | inconclusive: 17.8 µM [inhibitor, single point] | –
COc1ccc(-c2nc3sc(CCNC(=O)c4ccccc4C)c(C)n3n2)cc1 | inconclusive: 10 µM [inhibitor, single point] | –
Cc1cccc(NC(=O)N2CCC(CN3CCOCC3)CC2)c1C | – | inactive: 14.4% [at 0.594 µM]
Cc1ccc2c(c1)-c1c(c(C(=O)N3CCN(c4cc(Cl)ccc4C)CC3)nn1C)CS2 | active: 10 µM | –
COc1cccc(F)c1-c1ncc2c(n1)OCCN(c1cccc(C(F)(F)F)c1)C2=O | inconclusive: 11.2 µM [inhibitor, single point] | –
O=C(CCCc1ccccc1)N1CCC2(CC1)CN(C1CCC1)CC2CO (configuration not stated) | inconclusive: 7.94 µM [inhibitor, partial curve, poor fit] | –
COc1ccccc1C1CCN(Cc2cn(-c3ccccc3)nn2)CC1 | inconclusive: 20 µM [inhibitor, single point] | –
O=C(c1cnn2c1CCCC2)N1CCC(c2[nH]ncc2-c2ccccc2)CC1 | inconclusive: 4.47 µM [inhibitor, partial curve, poor fit] | –
CC(C)(C)c1ccc(C(=O)N2CCCC(O)(CN3CCCC3)C2)cc1 (configuration not stated) | inconclusive: 14.1 µM [inhibitor, single point] | –
COc1ccc(OC)c(S(=O)(=O)N2CC=C(c3c(C)n(CC(=O)N4CCCC4)c4ccccc34)CC2)c1 | inconclusive: 14.1 µM [inhibitor, partial curve, poor fit] | –
CCOc1ccc(C2C(C(=O)Nc3ccc(Cl)cc3)=C(C)Nc3nc(C(F)(F)F)nn32)cc1 (configuration not stated) | active: 2.82 µM | –

Structure (SMILES) | Potency | activity, negative = inhibition
CCc1ccccc1NC(=O)CSc1nc2c(oc3ccccc32)c(=O)n1-c1ccccc1F | inconclusive: 17.8 µM [inhibitor, single point] | –
Cc1ccc2ccc3cc(C(=O)N4CCN(c5ccccc5)CC4)nc3c2[nH]1 | inconclusive: 17.8 µM [inhibitor, single point] | –
Cc1ccc(NC(=O)C(=O)NCC(c2cccnc2)N2CCN(Cc3ccccc3)CC2)cc1 (configuration not stated) | – | inactive: 80.8% [at 0.594 µM]
COc1ccc(-c2cc(C(F)(F)F)n3nc(C(=O)NCC45CC6CC(CC(C6)C4)C5)cc3n2)cc1OC | inactive | –
CN(C)CCN(Cc1ccco1)C(=O)Cn1nc2n(c1=O)CCC(N)CC2 (configuration not stated) | inactive | –
COc1ccc(C(=O)N2CCc3nc(-c4ccc(Cl)cc4)nc(-c4ccccc4)c3C2)cc1 | inconclusive: 12.6 µM [inhibitor, single point] | –
O=C(NC[C@H]1O[C@H](Cc2cc(-c3ccccc3)on2)CC[C@@H]1O)C1CCC1 | inconclusive: 12.6 µM [inhibitor, partial curve] | –
O=C(c1n[nH]c2c1CCCC2)N1CCC2(CC1)NC(=O)N(c1ccc(F)cc1)N2 | inconclusive: 10 µM [inhibitor, single point] | –
O=C(NC[C@H]1COCc2nc3cc(F)ccc3n21)c1ccc(Cl)cc1 | inactive | –
O=C(NC1CCOC2(CCOCC2)C1)c1cnc2c(O)cccn2c1=O (configuration not stated) | inconclusive: 17.8 µM [inhibitor, partial curve, poor fit] | –
C=CCNC(=O)C(NC(=O)c1ccc(OC)cc1)C1CCN(C(=O)c2ccccc2C)CC1 (configuration not stated) | inactive | –
CN(C)C(=O)N1CCn2nc(CNC(=O)c3cccc(-n4cnnc4)c3)cc2C1 | inactive | –
COc1cccc([S+](=O)([O-])N2CC(N(C)c3ccccc3C)C2)c1 | inactive | –
O=C(C[C@@H]1O[C@H](CNCc2cccc(Cl)c2)[C@@H](O)[C@H]1O)NC1CC1 | inactive | –
O=C(Nc1ccc(Cl)cc1)c1ccc2c(c1)n(Cc1ccccc1)c(=O)c1ccnn12 | inconclusive: 2.51 µM [inhibitor, partial curve, poor fit] | –
COCCNC(=O)C1COC2(CCN(C(=O)c3ccc(F)cc3)CC2)N1C(=O)c1ccccc1 (configuration not stated) | inactive | –
COc1ccccc1OCC(=O)NCC1(N(C)C)CCCCC1 | inconclusive: 8.91 µM [inhibitor, single point] | –
CCC(=O)N1CCc2c(sc3ncnc(Nc4ccccc4)c23)C1 | inconclusive: 17.8 µM [inhibitor, single point] | –
CC(C)CCNC(=O)c1ccc2c(c1)N(Cc1ccccc1F)C(=O)c1ccccc1S2=O (configuration not stated) | inconclusive: 17.8 µM [inhibitor, single point] | –
O=C(NC1CCCCC1)c1ccc(CSc2nc3cccnc3n2Cc2ccccc2F)cc1 | inconclusive: 11.2 µM [inhibitor, single point] | –
COc1ccc(-c2nn(-c3ccccc3C)c(OC(C)=O)c2-c2ccc(NC(C)=O)cc2)cc1OC | inconclusive: 3.98 µM [inhibitor, partial curve, poor fit] | –
CCOC(=O)c1c(S(=O)(=O)N2CCC(C(=O)N3CCN(c4cc(C)ccc4C)CC3)CC2)c(C)n(C)c1C | inconclusive: 10 µM [inhibitor, single point] | –
Cc1noc([C@H]2CCN(Cc3ccsc3)C[C@H]2NC(=O)C2CC2)n1 | – | inactive: -8.5% [at 5.79 µM]

Structure (SMILES) | Potency | activity, negative = inhibition
COc1cc(C2C(C(=O)Nc3ccccc3)=C(C)Nc3nc(SCc4ccccc4F)nn32)cc(OC)c1OC (configuration not stated) | inactive | –
Cc1ccc(-c2cc(C(=O)N3CCN(c4ccccc4)CC3)c3ccccc3n2)cc1C | inconclusive: 11.2 µM [inhibitor, single point] | –
CCOc1cc2c(cc1OCC)C(c1c(F)cccc1Cl)CC(=O)N2 (configuration not stated) | inconclusive: 7.94 µM [inhibitor, partial curve] | –
COc1ccc(CCN2CCC(CNC(=O)c3cnn(-c4ccccc4)c3C3CCN(C(=O)OC(C)(C)C)CC3)CC2)cc1 | inconclusive: 3.98 µM [inhibitor, single point] | –
CCc1nccn1CCNC(=O)C1CCN(C(=O)C2CCC2)CC1 | inactive | –
O=C1N(c2ccccc2)c2ccccc2C12CCN(Cc1ccc(C(F)(F)F)cc1)C2 (configuration not stated) | inconclusive: 10 µM [inhibitor, single point] | –
Cc1cccc(-n2nc(-c3c(C)nc4scc(CC(=O)N5CCOCC5)n4c3=O)cc2C)c1 | inconclusive: 0.355 µM [inhibitor, full curve, poor fit] | –
CC1(C)Cc2c(cnn2-c2ccc(F)cc2)C(NC(=O)c2cc(C3CC3)[nH]n2)C1 (configuration not stated) | inactive | –
CC(=O)N1CCc2cc(Br)cc(S(=O)(=O)N3CCN(c4cccc(C)c4)C(C)C3)c21 (configuration not stated) | inconclusive: 7.08 µM [inhibitor, partial curve] | –
O=C(C[C@H]1NC(=O)c2ccccc2NC1=O)Nc1nnc(C2CCCO2)s1 (some centres not stated) | inactive | –
CCOCCOC1CCN(C(=O)CCc2ccccc2)CC1 | inactive | –
c1cncc(COc2cc3c(cn2)NCCN(Cc2ccc4[nH]ccc4c2)C3)c1 | inconclusive: 31.6 µM [inhibitor, single point] | –
COc1ccc(-c2noc([C@H](C)O)c2C(=O)NC(C)C)cc1 | inactive | –
Cc1ccc(Cc2nc3ccccc3nc2SCC(=O)N2CCCCC2C)cc1 (configuration not stated) | inconclusive: 10 µM [inhibitor, single point] | –
COc1cccc(N2C(=O)NC(=NC3CCCC3)C23CCCN(Cc2ccsc2)C3)c1 (configuration not stated) | active: 8.91 µM | –
Clc1cc(NCc2ccccn2)n2nccc2n1 | inconclusive: 2.24 µM [inhibitor, partial curve] | –
CC1(C)[C@H](Cc2cc(CC3CCCCC3)on2)C[C@@H]1NS(C)(=O)=O | inconclusive: 31.6 µM [inhibitor, single point] | –
COc1ccc2[nH]c(C[C@@H]3C[C@@H](C(C)C)[C@H](CNC4CCN(C)CC4)C=C3C)nc2n1 | inconclusive: 3.55 µM [inhibitor, single point] | –
CCOc1ccc(C(=O)c2cn(Cc3ccc(F)cc3)c3ccc(F)cc3c2=O)cc1 | inconclusive: 14.1 µM [inhibitor, partial curve, poor fit] | –
CN(Cc1ccccc1)C(=O)[C@@H]1Cc2nc[nH]c2CN1Cc1ccc(C(=O)O)cc1 | inactive | –
O=C(NCc1ccccc1)[C@@H]1Cc2nc[nH]c2CN1Cc1cccc(OC(F)(F)F)c1 | active: 10 µM | –
